The supplement of paper PMC3334620
Over roughly 33,000 sequences, “E-score (-0.5 to 0.5)” has its median near -0.043; the highest 2% begin near 0.37. The list shows a part of the results.

Each sequence was assayed against T1, Upc2 (UniProt Q12151) (assay: PBM E-score (8-mer binding enrichment) (E-score (-0.5 to 0.5)); higher = stronger / more preferred TF binding; most listed sequences are background and not binding sites). Conditions: protein concentration: 200 nM; construct: GST-full length.
T1 sequence: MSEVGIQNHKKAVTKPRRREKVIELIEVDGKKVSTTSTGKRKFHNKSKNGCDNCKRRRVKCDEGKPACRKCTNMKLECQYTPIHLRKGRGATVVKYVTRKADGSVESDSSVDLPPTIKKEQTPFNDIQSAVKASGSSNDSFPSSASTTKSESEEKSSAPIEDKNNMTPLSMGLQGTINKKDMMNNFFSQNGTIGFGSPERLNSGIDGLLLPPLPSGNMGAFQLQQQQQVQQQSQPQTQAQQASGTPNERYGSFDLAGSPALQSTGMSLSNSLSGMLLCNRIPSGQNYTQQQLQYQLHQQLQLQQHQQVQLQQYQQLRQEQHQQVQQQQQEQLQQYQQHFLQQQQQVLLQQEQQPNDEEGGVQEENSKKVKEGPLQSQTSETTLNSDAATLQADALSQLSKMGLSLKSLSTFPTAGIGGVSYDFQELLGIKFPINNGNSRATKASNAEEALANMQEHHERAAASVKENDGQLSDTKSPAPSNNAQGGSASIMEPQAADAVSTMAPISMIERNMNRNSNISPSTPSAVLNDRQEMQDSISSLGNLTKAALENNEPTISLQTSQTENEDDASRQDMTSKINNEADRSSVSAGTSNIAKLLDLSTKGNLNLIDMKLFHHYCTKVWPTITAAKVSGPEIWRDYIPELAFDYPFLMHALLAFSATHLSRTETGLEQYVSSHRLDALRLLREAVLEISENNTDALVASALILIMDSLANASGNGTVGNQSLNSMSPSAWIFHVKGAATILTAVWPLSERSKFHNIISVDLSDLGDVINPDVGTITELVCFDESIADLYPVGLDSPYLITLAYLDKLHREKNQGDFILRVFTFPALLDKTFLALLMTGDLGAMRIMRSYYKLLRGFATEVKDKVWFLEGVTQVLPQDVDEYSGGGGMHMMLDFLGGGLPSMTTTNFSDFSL
In short: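 Each ungapped eight-base word and its reverse complement, pooled, received an E-score from the Universal PBM Analysis Suite. Underlying scans, normalised with masliner, recorded fluorescent anti-GST bound to GST-tagged yeast transcription factors. These were applied at about 100-200 nM to universal all-10-mer Agilent arrays double-stranded by primer extension.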

CGAAGAAG was tested. Which “PBM E-score” value did it give?
The value was 0.085.

How did the “PBM E-score” value turn out when GAACGGGA was run?
The value was 0.238.

With ACCCAAGC as the sequence, how does the “PBM E-score” value read?
Its value is -0.119.

Which “PBM E-score” value does the source give for CCTGAGCA here?
Its value is -0.117.

With ACTACCAC as the sequence, how does the “PBM E-score” value read?
The value was -0.154.

CCTTGGAA was tested. Which “PBM E-score” value did it give?
The value was -0.148.

GTGGCGGA was tested. Which “PBM E-score” value did it give?
The value was -0.285.

With AGGATACA as the sequence, how does the “PBM E-score” value read?
The value was -0.167.

For AAACTCTT, which “PBM E-score” value is on record?
The value was -0.195.

Which “PBM E-score” value does the source give for GACAAGGA here?
Its value is -0.122.

How did the “PBM E-score” value turn out when CTAGTGCC was run?
Its value is -0.219.

With ACCTGTCG as the sequence, how does the “PBM E-score” value read?
The value was 0.158.

With CGTCGAAG as the sequence, how does the “PBM E-score” value read?
The value was -0.0248.

CGTCCATC was tested. Which “PBM E-score” value did it give?
Its value is -0.0612.

With CGAAGATC as the sequence, how does the “PBM E-score” value read?
The value was 0.246.

AGTGGTAA was tested. Which “PBM E-score” value did it give?
The value was -0.0195.

ATTGAGAA was tested. Which “PBM E-score” value did it give?
Its value is 0.0824.

Which “PBM E-score” value does the source give for ACCGTCGA here?
The value was -0.191.

Which “PBM E-score” value does the source give for GGCGTAAA here?
Its value is 0.279.

For TGGGCCCA, which “PBM E-score” value is on record?
The value was 0.0916.

TAACCAAA was tested. Which “PBM E-score” value did it give?
Its value is -0.00385.

AAAAGGCT was tested. Which “PBM E-score” value did it give?
The value was -0.229.

For ACTAGGTA, which “PBM E-score” value is on record?
Its value is -0.0859.

How did the “PBM E-score” value turn out when CCGACATA was run?
The value was -0.0313.

TGACTAAA was tested. Which “PBM E-score” value did it give?
Its value is -0.133.

With CTAAATAC as the sequence, how does the “PBM E-score” value read?
Its value is 0.132.

Which “PBM E-score” value does the source give for CTTGATGA here?
The value was -0.0898.

With CTCAGGAC as the sequence, how does the “PBM E-score” value read?
Its value is -0.101.

With AACTACAT as the sequence, how does the “PBM E-score” value read?
Its value is -0.257.

How did the “PBM E-score” value turn out when ACTTCTAT was run?
Its value is 0.0241.

With CCTCCAGG as the sequence, how does the “PBM E-score” value read?
The value was -0.243.

Which “PBM E-score” value does the source give for CACAAACC here?
The value was -0.0575.

For ATGCACGA, which “PBM E-score” value is on record?
The value was -0.0149.

Which “PBM E-score” value does the source give for GCCAAAAA here?
Its value is -0.209.

With ATAAACAC as the sequence, how does the “PBM E-score” value read?
The value was -0.033.

CGCCGATC was tested. Which “PBM E-score” value did it give?
Its value is -0.0454.

TGGGACAA was tested. Which “PBM E-score” value did it give?
Its value is -0.333.

For ACGAACAG, which “PBM E-score” value is on record?
The value was 0.314.

Which “PBM E-score” value does the source give for ACATTCCT here?
Its value is -0.0475.

Which “PBM E-score” value does the source give for CATCTCTA here?
The value was 0.017.

How did the “PBM E-score” value turn out when AAGAACCG was run?
The value was 0.012.

For GACCGCAA, which “PBM E-score” value is on record?
The value was 0.187.

How did the “PBM E-score” value turn out when GCGGTTCA was run?
Its value is -0.208.

How did the “PBM E-score” value turn out when GCAACCTA was run?
The value was -0.195.

CCCCCAAG was tested. Which “PBM E-score” value did it give?
The value was -0.242.

How did the “PBM E-score” value turn out when AGCCGAAC was run?
Its value is 0.0166.

With CCAGCACG as the sequence, how does the “PBM E-score” value read?
The value was -0.0471.

Which “PBM E-score” value does the source give for AAGACATT here?
Its value is -0.101.

For GATCGGTA, which “PBM E-score” value is on record?
The value was 0.188.

ACGATCTG was tested. Which “PBM E-score” value did it give?
Its value is 0.273.

AGCAGGGC was tested. Which “PBM E-score” value did it give?
The value was -0.0834.

How did the “PBM E-score” value turn out when GCACCGCC was run?
The value was -0.115.

With GCATGAAA as the sequence, how does the “PBM E-score” value read?
Its value is 0.0207.

With CGCCCTGA as the sequence, how does the “PBM E-score” value read?
The value was -0.0614.

With CTGGTATC as the sequence, how does the “PBM E-score” value read?
Its value is -0.187.

GAGCTCCA was tested. Which “PBM E-score” value did it give?
The value was -0.188.

How did the “PBM E-score” value turn out when ATAATTAA was run?
Its value is 0.122.

Which “PBM E-score” value does the source give for AGCATCAC here?
Its value is -0.142.

For ACAAGTGT, which “PBM E-score” value is on record?
Its value is -0.0749.

ACATGGAG was tested. Which “PBM E-score” value did it give?
The value was -0.162.

Which “PBM E-score” value does the source give for CCCAGTGC here?
Its value is 0.00171.

How did the “PBM E-score” value turn out when GATCGAAC was run?
The value was 0.113.

For CAAGTTTA, which “PBM E-score” value is on record?
Its value is 0.0199.

GCGGTTAC was tested. Which “PBM E-score” value did it give?
The value was 0.0818.

For GTTTAGTA, which “PBM E-score” value is on record?
The value was 0.315.

Which “PBM E-score” value does the source give for AAGCTCTG here?
The value was -0.266.

How did the “PBM E-score” value turn out when CTAAGCAA was run?
The value was -0.0969.

For ACGAATTG, which “PBM E-score” value is on record?
Its value is 0.266.

With GTTTTGCA as the sequence, how does the “PBM E-score” value read?
The value was -0.014.

With AGTTTCTG as the sequence, how does the “PBM E-score” value read?
Its value is -0.125.

Which “PBM E-score” value does the source give for GAGCTTCA here?
Its value is -0.132.

How did the “PBM E-score” value turn out when CGAACGAA was run?
Its value is 0.398.

For AGCTCTCA, which “PBM E-score” value is on record?
Its value is -0.214.

Which “PBM E-score” value does the source give for GGCCTTGA here?
Its value is -0.122.

Which “PBM E-score” value does the source give for TCTTTCAA here?
Its value is -0.0554.

CTTTGACC was tested. Which “PBM E-score” value did it give?
Its value is 0.0273.

With ACGTACCA as the sequence, how does the “PBM E-score” value read?
Its value is 0.255.

Which “PBM E-score” value does the source give for AATCTCTC here?
The value was -0.0336.

Which “PBM E-score” value does the source give for GCATCGGA here?
The value was -0.0207.

With CGGATTCA as the sequence, how does the “PBM E-score” value read?
Its value is -0.0988.

GCTGAGGA was tested. Which “PBM E-score” value did it give?
Its value is -0.145.

ACGGTTAG was tested. Which “PBM E-score” value did it give?
Its value is 0.0076.

TAACAGCA was tested. Which “PBM E-score” value did it give?
Its value is 0.0585.

How did the “PBM E-score” value turn out when AGGAATGC was run?
The value was 0.0204.

AATCCGAG was tested. Which “PBM E-score” value did it give?
The value was 0.158.

How did the “PBM E-score” value turn out when AACAGCAC was run?
Its value is 0.0284.

ATAGCAGC was tested. Which “PBM E-score” value did it give?
The value was -0.337.

Which “PBM E-score” value does the source give for AAATAAGT here?
Its value is 0.0268.

How did the “PBM E-score” value turn out when ACCCTAGC was run?
The value was -0.144.

How did the “PBM E-score” value turn out when ATACATAC was run?
The value was 0.153.

For GTAGTGGA, which “PBM E-score” value is on record?
The value was -0.0616.

How did the “PBM E-score” value turn out when ACCACTCG was run?
Its value is 0.178.

Which “PBM E-score” value does the source give for CCCTCCTC here?
Its value is -0.082.

With AGTCTTTG as the sequence, how does the “PBM E-score” value read?
The value was -0.0249.

With CTCATTTC as the sequence, how does the “PBM E-score” value read?
The value was -0.143.

CGTGAACA was tested. Which “PBM E-score” value did it give?
The value was 0.11.

For AATTAGGC, which “PBM E-score” value is on record?
The value was 0.0573.

With ATATGTGC as the sequence, how does the “PBM E-score” value read?
Its value is -0.0742.

For ATTTGCCC, which “PBM E-score” value is on record?
Its value is -0.185.

For ACTGGTAC, which “PBM E-score” value is on record?
Its value is 0.164.

How did the “PBM E-score” value turn out when CGTCATGA was run?
The value was -0.0226.

For ATACCGAG, which “PBM E-score” value is on record?
The value was 0.0941.

CATAGAGG was tested. Which “PBM E-score” value did it give?
The value was -0.151.

With GCGGGTAA as the sequence, how does the “PBM E-score” value read?
Its value is -0.117.

How did the “PBM E-score” value turn out when AGCATTAT was run?
The value was -0.183.

GGCCGTAC was tested. Which “PBM E-score” value did it give?
Its value is 0.389.

For ACCCGAAA, which “PBM E-score” value is on record?
The value was 0.0519.

ACGAGGTC was tested. Which “PBM E-score” value did it give?
Its value is 0.371.

Which “PBM E-score” value does the source give for GGGTATTA here?
Its value is 0.0508.

ACAAACAA was tested. Which “PBM E-score” value did it give?
The value was -0.0593.
